Measurements as given in the antibiotic and cytotoxicity screens of Wong et al. (2023).
The other results are listed elsewhere or left out.

Columns and labels:
HSkMC = human skeletal muscle cells; assay: cytotoxicity call (relative viability < 0.9); conditions: 10 µM
HepG2 = assay: cytotoxicity call (relative viability < 0.9); conditions: 10 µM
S. aureus RN4220 = assay: growth inhibition call (relative growth <= 0.2); conditions: 50 µM

SMILES	cytotoxicity call (HSkMC)	cytotoxicity call (HepG2)	growth inhibition call (S. aureus RN4220)
C[C@@H]1CN([C@@H](C)CO)C(=O)c2c(c3ccccc3n2C)-c2ccccc2CO[C@H]1CN(C)C(=O)Nc1ccccc1C(F)(F)F	inactive	inactive	inactive
C[C@H](O)[C@H](O)[C@@H](O)[C@@H](O)/C=N/NC(=O)CCCCCC(=O)NO	inactive	inactive	inactive
C[C@@H]1CCCCO[C@H](CN(C)C(=O)Nc2ccc3c(c2)OCO3)[C@@H](C)CN([C@@H](C)CO)C(=O)c2cc(NC(=O)CCC(F)(F)F)ccc2O1	inactive	inactive	inactive
Cc1cn(C2CC(N=[N+]=[N-])C(CO)O2)c(=O)[nH]c1=O (stereo not given)	inactive	inactive	inactive
C[C@@H]1CN([C@H](C)CO)S(=O)(=O)c2ccc(-c3ccncc3)cc2O[C@@H]1CN(C)C(=O)c1ccc2c(c1)OCO2	inactive	inactive	inactive
O=C(C[C@@H]1C[C@H]2c3cc(NC(=O)Nc4ccc(C(F)(F)F)cc4)ccc3O[C@H]2[C@H](CO)O1)NCc1cc(F)ccc1F	inactive	inactive	inactive
C[C@@H]1CN([C@H](C)CO)C(=O)c2cc(NC(=O)CCC(F)(F)F)ccc2O[C@@H](C)CCCCO[C@H]1CN(C)C(=O)CCC(F)(F)F	inactive	inactive	inactive
CC(C)C[C@H](NC(=O)N1CCCCCC1)C(=O)N[C@H](Cc1cn(C)c2ccccc12)C(=O)N[C@H](Cc1ccccn1)C(=O)O	inactive	inactive	inactive
Cc1noc(C)c1NC(=O)N(C)C[C@@H]1OCCCC[C@@H](C)Oc2ccc(NC(=O)NC3CCCCC3)cc2C(=O)N([C@@H](C)CO)C[C@H]1C	inactive	inactive	inactive
Cc1noc(C)c1S(=O)(=O)N(C)C[C@H]1Oc2ccc(NC(=O)CCC(F)(F)F)cc2CC(=O)N([C@@H](C)CO)C[C@H]1C	inactive	inactive	inactive
Cc1ccc(S(=O)(=O)N2C[C@H](O)COC[C@@H]3O[C@@H](CC(=O)NCCCN(C)C)CC[C@H]32)cc1	inactive	inactive	inactive
COc1ccc(NC(=O)N(C)C[C@@H]2Oc3ccc(NC(=O)C4CC4)cc3CC(=O)N([C@@H](C)CO)C[C@@H]2C)cc1	inactive	inactive	inactive
Cc1noc(C)c1S(=O)(=O)Nc1ccc2c(c1)CC(=O)N([C@H](C)CO)C[C@@H](C)[C@@H](CN(C)S(C)(=O)=O)O2	inactive	inactive	inactive
C[C@@H]1CN([C@H](C)CO)C(=O)c2cc(C#Cc3ccccc3F)cnc2O[C@@H]1CN(C)S(=O)(=O)c1ccccc1F	inactive	inactive	inactive
Cn1cnc(S(=O)(=O)N2C[C@@H](O)COC[C@@H]3O[C@@H](CC(=O)NC4CCC4)CC[C@H]32)c1	inactive	inactive	inactive
O=C(CN1C(=O)COCC1=O)N1CCOCC1	inactive	inactive	inactive
CCCNC(=O)Nc1ccc2c(c1)C(=O)N(C)C[C@H](OC)[C@@H](C)CN(Cc1ccc(-c3ccccn3)cc1)[C@H](C)CO2	inactive	inactive	inactive
C[C@@H]1CN([C@H](C)CO)C(=O)c2cc(NC(=O)Nc3ccc4c(c3)OCO4)ccc2O[C@H]1CN(C)Cc1ccc(C(F)(F)F)cc1	inactive	inactive	inactive
C[C@@H]1CCCCO[C@H](CN(C)Cc2ccccc2)[C@H](C)CN([C@H](C)CO)C(=O)c2cc(NS(=O)(=O)c3cccs3)ccc2O1	inactive	inactive	inactive
C[C@@H]1CN([C@H](C)CO)C(=O)c2cc(NC(=O)Nc3cccc4ccccc34)ccc2O[C@H]1CN(C)Cc1ccc2c(c1)OCO2	inactive	inactive	inactive
COc1ccc(NC(=O)Nc2ccc3c(c2)C(=O)N([C@@H](C)CO)C[C@@H](C)[C@H](CN(C)S(=O)(=O)c2ccc(Cl)cc2)OCCCC[C@@H](C)O3)cc1	inactive	inactive	inactive
CN1CCN(CC(=O)N2c3ccccc3C(=O)Nc3cccnc32)CC1.Cl.Cl	inactive	inactive	inactive
O=S1(=O)NCNc2ccccc21	inactive	inactive	inactive
CCc1cc(=O)oc2cc(C)c3c(-c4ccccc4)coc3c12	inactive	inactive	inactive
c1cc[n+](C[n+]2ccccc2)cc1	inactive	inactive	inactive
OCC1OC(O)(CO)C(O)C1O (stereo not given)	inactive	inactive	inactive
C[C@@H]1CCCCO[C@H](CN(C)S(=O)(=O)c2ccc(F)cc2)[C@@H](C)CN([C@@H](C)CO)C(=O)c2cc(NC(=O)c3ccccc3)ccc2O1	inactive	inactive	inactive
C[C@H](CO)N1C[C@H](C)[C@@H](CN(C)Cc2ccc(C(=O)Nc3ccccc3N)cc2)Oc2c(NC(=O)C3CCCCC3)cccc2C1=O	inactive	inactive	inactive

SMILES	cytotoxicity call (HSkMC)	cytotoxicity call (HepG2)	growth inhibition call (S. aureus RN4220)
COC(=O)C(Cc1ccccc1)NC(=O)C(N)CC(=O)O (stereo not given)	inactive	inactive	inactive
CCOC(=O)c1cc2c(c(-c3cccc(-c4cccc(OC)c4)c3)n1)[C@H](CCO)N(S(=O)C(C)(C)C)C2 (stereo not given in full)	inactive	inactive	inactive
C[C@@H]1CN([C@@H](C)CO)S(=O)(=O)c2ccc(C#CCN(C)C)cc2O[C@H]1CN(C)Cc1ccccn1	inactive	inactive	inactive
CCCN(C)C[C@@H]1Oc2cc(C#Cc3ccccc3OC)ccc2S(=O)(=O)N([C@H](C)CO)C[C@@H]1C	inactive	inactive	inactive
Cn1cnc(S(=O)(=O)N2C[C@@H](O)COC[C@H]3O[C@H](CC(=O)NC4CCCC4)CC[C@@H]32)c1	inactive	inactive	inactive
C[C@@H]1CN([C@H](C)CO)C(=O)c2cc(N(C)C)ccc2O[C@@H](C)CCCCO[C@@H]1CN(C)C(=O)CCCN(C)C	inactive	inactive	inactive
C[C@@H]1CN([C@H](C)CO)C(=O)Cc2cc(NS(=O)(=O)c3ccc(F)cc3)ccc2O[C@H]1CN(C)S(=O)(=O)c1ccc(F)cc1	inactive	inactive	inactive
COCCOC(=O)N1C(=O)[C@@]2(c3cc(C#CC4=CCCCC4)ccc31)[C@H](C(=O)NC[C@H](O)c1ccccc1)[C@H]1C(=O)O[C@H](c3ccccc3)[C@H](c3ccccc3)N1[C@@H]2c1ccc(O)cc1	inactive	inactive	inactive
Cn1cnc(S(=O)(=O)N[C@H]2CC[C@H](CC(=O)Nc3ccccc3)O[C@@H]2CO)c1	inactive	inactive	inactive
CC(=O)N[C@@H]1CC(=O)N(c2ccccc2)C1	inactive	inactive	inactive
C[C@H]1CCCCO[C@H](CN(C)C(=O)Nc2cccc3ccccc23)[C@@H](C)CN([C@@H](C)CO)C(=O)c2cc(NC(=O)CCC(F)(F)F)ccc2O1	inactive	active	inactive
C[C@@H]1CCCCO[C@@H](CN(C)C(=O)NC2CCCCC2)[C@H](C)CN([C@H](C)CO)C(=O)c2cc(NC(=O)Nc3ccc4c(c3)OCO4)ccc2O1	inactive	inactive	inactive
C[C@@H]1CN([C@H](C)CO)C(=O)c2cc(NC(=O)Cn3cnnn3)ccc2O[C@H]1CN(C)S(=O)(=O)c1ccc(Cl)cc1	inactive	inactive	inactive
COc1ccc(CN(C)C[C@@H]2Oc3ccc(NS(=O)(=O)c4c(C)noc4C)cc3CC(=O)N([C@@H](C)CO)C[C@H]2C)cc1	inactive	inactive	inactive
C[C@H]1CN([C@@H](C)CO)C(=O)Cc2cc(NS(=O)(=O)c3ccc(Cl)cc3)ccc2O[C@@H]1CN(C)C(=O)Nc1ccc(C(F)(F)F)cc1	inactive	inactive	inactive
O=C1O[C@H](c2ccccc2)[C@H](c2ccccc2)N2[C@H]1[C@@H](C(=O)N1CCN(c3ncccn3)CC1)[C@]1(C(=O)Nc3ccc(C#CC4(O)CCCCCC4)cc31)[C@H]2c1ccccc1OCCO	inactive	inactive	inactive
COCCNC(=O)CCC(=O)NN=c1nc2ccccc2c2nc(C)[nH]n12	inactive	inactive	inactive
C[C@@H]1CN([C@H](C)CO)C(=O)c2cc(NC(=O)Nc3ccc(C(F)(F)F)cc3)ccc2O[C@@H](C)CCCCO[C@@H]1CN(C)CC1CCCCC1	active	active	inactive
C[C@H]1CN([C@@H](C)CO)C(=O)Cc2cc(NC(=O)Cc3ccccc3)ccc2O[C@H]1CN(C)S(C)(=O)=O	inactive	inactive	inactive
COc1ccc(S(=O)(=O)N(C)C[C@@H]2Oc3ncc(-c4cccc(F)c4)cc3C(=O)N([C@H](C)CO)C[C@@H]2C)cc1	inactive	inactive	inactive
C[C@@H]1CN([C@@H](C)CO)C(=O)Cc2cc(NS(=O)(=O)c3ccc(Cl)cc3)ccc2O[C@H]1CN(C)S(C)(=O)=O	inactive	inactive	inactive
O=C(C[C@@H]1C[C@H]2c3cc(NC(=O)c4ccc5c(c4)OCO5)ccc3O[C@H]2[C@H](CO)O1)NCC(F)(F)F	inactive	inactive	inactive
CCS(=O)(=O)N1CC[C@]2(CC1)CN([C@H](CO)c1c2c2ccc(cc2n1C)OC)C(=O)Nc1c(noc1C)C	inactive	inactive	inactive
COc1ccc(CNC(=O)C[C@H]2CC[C@H]3[C@@H](COc4ccc(NC(=O)C(C)C)cc4C(=O)N3C)O2)cc1	inactive	inactive	inactive
CO[C@@H]1CN(C)C(=O)c2ccc(NC(=O)C3CCOCC3)cc2OC[C@H](C)N(Cc2cccnc2)C[C@@H]1C	inactive	inactive	inactive
CC(C)NC(=O)Nc1ccc2c(c1)C(=O)N([C@H](C)CO)C[C@H](C)[C@H](CN(C)Cc1ccc(Oc3ccccc3)cc1)O2	inactive	inactive	inactive
CO[C@@H](CN(C)S(=O)(=O)c1ccc(C)cc1)[C@@H](C)CN([C@H](C)CO)S(=O)(=O)c1cccc(Cl)c1	inactive	inactive	inactive
